# The supplement of paper PMC8728848
# This is one part of the list.
# B1: Banana lectin (Musa acuminata) (protein)
# chain: MNGAIKVGAWGGNGGSAFDMGPAYRIISVKIFSGDVVDAVDVTFTYYGKTETRHFGGSGGTPHEIVLQEGEYLVGMKGEFGNYHGVVVVGKLGFSTNKKSYGPFGNTGGTPFSLPIAAGKISGFFGRGGDFIDAIGVYLEP
# Assays:
# Experiment in all cases: glycan array binding signal (z-score within array); higher = stronger binding
# Settings in all cases: glycan notation: IUPAC condensed, linker removed
# [1] = target: Gal(b1-4)GalNAc(b1-3)[Fuc(a1-2)]Gal(b1-4)GlcNAc
# Outline: (§1)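 The Consortium for Functional Glycomics database supplied 3228 glycan arrays, of which those lacking an available protein sequence were dropped. The binding signal, a within-array Z-score, was averaged across arrays of the same protein sequence and across linkers. Negative scores can be read as non-binding.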
# Gal(b1-4)Glc = target: Gal(b1-4)Glc
# Outline: as §1
# Gal(b1-4)Glc6S = target: Gal(b1-4)Glc6S
# Outline: as §1
# Gal(b1-4)GlcNAc = target: Gal(b1-4)GlcNAc
# Outline: as §1
# [2] = target: Gal(b1-4)GlcNAc(a1-6)Gal(b1-4)GlcNAc
# Outline: as §1
# Gal(b1-4)GlcNAc(b1-2)Man = target: Gal(b1-4)GlcNAc(b1-2)Man
# Outline: as §1
# [3] = target: Gal(b1-4)GlcNAc(b1-2)Man(a1-3)Man(b1-4)GlcNAc(b1-4)GlcNAc
# Outline: as §1
# [4] = target: Gal(b1-4)GlcNAc(b1-2)Man(a1-3)[Gal(b1-4)GlcNAc(b1-2)Man(a1-6)]Man(b1-4)GlcNAc(b1-4)GlcNAc
# Outline: as §1
# [5] = target: Gal(b1-4)GlcNAc(b1-2)Man(a1-3)[Gal(b1-4)GlcNAc(b1-2)Man(a1-6)]Man(b1-4)GlcNAc(b1-4)[Fuc(a1-6)]GlcNAc
# Outline: as §1
# [6] = target: Gal(b1-4)GlcNAc(b1-2)Man(a1-3)[Gal(b1-4)GlcNAc(b1-2)Man(a1-6)][Gal(b1-4)GlcNAc(b1-4)]Man(b1-4)GlcNAc(b1-4)[Fuc(a1-6)]GlcNAc
# Outline: as §1
# [7] = target: Gal(b1-4)GlcNAc(b1-2)Man(a1-3)[Gal(b1-4)GlcNAc(b1-2)Man(a1-6)][GlcNAc(b1-4)]Man(b1-4)GlcNAc(b1-4)[Fuc(a1-6)]GlcNAc
# Outline: as §1
# [8] = target: Gal(b1-4)GlcNAc(b1-2)Man(a1-3)[GlcNAc(b1-2)Man(a1-6)]Man(b1-4)GlcNAc(b1-4)GlcNAc
# Outline: as §1
# [9] = target: Gal(b1-4)GlcNAc(b1-2)Man(a1-3)[GlcNAc(b1-4)][Gal(b1-4)GlcNAc(b1-2)Man(a1-6)]Man(b1-4)GlcNAc(b1-4)GlcNAc
# Outline: as §1
# [10] = target: Gal(b1-4)GlcNAc(b1-2)Man(a1-3)[Man(a1-6)]Man(b1-4)GlcNAc(b1-4)GlcNAc
# Outline: as §1
# [11] = target: Gal(b1-4)GlcNAc(b1-2)Man(a1-6)Man(b1-4)GlcNAc(b1-4)GlcNAc
# Outline: as §1
# [12] = target: Gal(b1-4)GlcNAc(b1-2)Man(a1-6)[GlcNAc(b1-2)Man(a1-3)]Man(b1-4)GlcNAc(b1-4)GlcNAc
# Outline: as §1
# [13] = target: Gal(b1-4)GlcNAc(b1-2)Man(a1-6)[Man(a1-3)]Man(b1-4)GlcNAc(b1-4)GlcNAc
# Outline: as §1
# [14] = target: Gal(b1-4)GlcNAc(b1-2)[Gal(b1-4)GlcNAc(b1-4)]Man(a1-3)[Gal(b1-4)GlcNAc(b1-2)Man(a1-6)]Man(b1-4)GlcNAc(b1-4)GlcNAc
# Outline: as §1
# [15] = target: Gal(b1-4)GlcNAc(b1-2)[Gal(b1-4)GlcNAc(b1-4)]Man(a1-3)[Gal(b1-4)GlcNAc(b1-2)[Gal(b1-4)GlcNAc(b1-6)]Man(a1-6)]Man(b1-4)GlcNAc(b1-4)GlcNAc
# Outline: as §1
# [16] = target: Gal(b1-4)GlcNAc(b1-2)[Gal(b1-4)GlcNAc(b1-4)]Man(a1-3)[GlcNAc(b1-4)][Gal(b1-4)GlcNAc(b1-2)Man(a1-6)]Man(b1-4)GlcNAc(b1-4)GlcNAc
# Outline: as §1
# [17] = target: Gal(b1-4)GlcNAc(b1-2)[Gal(b1-4)GlcNAc(b1-4)]Man(a1-3)[GlcNAc(b1-4)][Gal(b1-4)GlcNAc(b1-2)[Gal(b1-4)GlcNAc(b1-6)]Man(a1-6)]Man(b1-4)GlcNAc(b1-4)GlcNAc
# Outline: as §1
# [18] = target: Gal(b1-4)GlcNAc(b1-2)[Gal(b1-4)GlcNAc(b1-6)]Man(a1-6)[Gal(b1-4)GlcNAc(b1-2)Man(a1-3)]Man(b1-4)GlcNAc(b1-4)GlcNAc
# Outline: as §1
binder,measurement,setting,value
B1,glycan array binding signal (z-score),[1],-0.195
same,glycan array binding signal (z-score),Gal(b1-4)Glc,-0.193
same,glycan array binding signal (z-score),Gal(b1-4)Glc6S,-0.192
same,glycan array binding signal (z-score),Gal(b1-4)GlcNAc,-0.195
same,glycan array binding signal (z-score),[2],-0.196
same,glycan array binding signal (z-score),Gal(b1-4)GlcNAc(b1-2)Man,-0.189
same,glycan array binding signal (z-score),[3],-0.188
same,glycan array binding signal (z-score),[4],-0.161
same,glycan array binding signal (z-score),[5],-0.144
same,glycan array binding signal (z-score),[6],-0.196
same,glycan array binding signal (z-score),[7],-0.195
same,glycan array binding signal (z-score),[8],-0.13
same,glycan array binding signal (z-score),[9],-0.195
same,glycan array binding signal (z-score),[10],1.08
same,glycan array binding signal (z-score),[11],-0.193
same,glycan array binding signal (z-score),[12],-0.132
same,glycan array binding signal (z-score),[13],2.15
same,glycan array binding signal (z-score),[14],-0.163
same,glycan array binding signal (z-score),[15],0.448
same,glycan array binding signal (z-score),[16],-0.184
same,glycan array binding signal (z-score),[17],-0.197
same,glycan array binding signal (z-score),[18],-0.076
